Experimental findings from US9096585B2 (Icahn School of Medicine at Mount Sinai, priority 2010, dated 2015) are described below.

Series [1] relates to human adenovirus 5 (hAd5). Type of series: cell-based. The note with it: A549, A3 10 μM, 24 h.
Series [2] has as its system influenza A virus.
Series [3] concerns influenza A virus. Put plainly: in vitro. The conditions noted are these: human.
Series [4] deals with influenza A virus. Put plainly: microbe, parasite or virus in culture.

Where two headings read alike, the source gives them in different places. Marks after values point to notes of the source that are not given here.

For the molecule `Cc1[nH]c2ccc(-c3nnc(SCC(=O)N4CCCC4)o3)cc2c1C` [Compound A3], the “titers of human adenovirus 5 (hAd5) reduced” value in series [1] turned out to be 6 logs. Moreover, in the series on influenza A virus [2] (A549, […], A3 10 μM, 24 h), the “inhibition of influenza virus strains of both H1N1 and H3N2 subtypes” value is “inhibit”. Further, the “time of addition at which inhibition was observed” value in the series on influenza A virus [2] (A549, […], A3 at its CC10, not later) was “up to 2 h postinfection”. The “reduction in viral titers” value in the series with influenza A virus [2] (A549, […], concentration of 2 μM) is recorded as 4 logs. For the same molecule, the viral titers reduced in the series with influenza A virus [2] (HTBE cells, […], after 24 h) is given as 4 logs; in the series on influenza A virus [2] (MEF cells, […], similar concentration of A3) it was “less than 2 logs”. The viral titer reduction with influenza A virus [2] (influenza A/WSN/33, A549, […], 10 μM A3 or less) is recorded as 2 log. The selectivity ratio with influenza A virus [3] amounted to 1500. For the same molecule, the IC50 came out at 540 nM in the series with influenza A virus [4] (A549, 24 h); 40 nM in the series on influenza A virus [4] (WSN, 24 h); 178 nM in the series on influenza A virus [4] (WSN, A549, 24 h); 178 nM in the series on influenza A virus [4] (WSN, A549, read-out: IC50 for influenza virus); 1000 nM in the series on influenza A virus [4] (WSN, MEF, 24 h).

On to `CN(c1nc(-c2ccc(Br)cc2)cs1)C1CCS(=O)(=O)C1` (centres unmarked) [Compound A35], for which, in the series on influenza A virus [2], the “inhibition of viral replication” value turned out to be 4 logs. Moreover, in the series with influenza A virus [2] (A549, determined by plaque assay, Table 3), the “Inhibition of FluA” value stood at 99.99% *. The molecule further had an IC50 in the series with influenza A virus [4] (A549, 24 h) of 2100 nM.

`COc1cc2c(O)c3c(c(-c4ccc5c(c4)OCO5)c2cc1OC)C(=O)OC3` [Compound C2]: in the series with influenza A virus [2], the “effect on the course of infection” value is listed as “did not affect the course of infection”.
